# Reference: paper PMC4336329 (PLoS ONE, 2015)
# The campaign covered roughly 310,000 compounds. About 14,000 (4.5%) showed an effect of 50% or more. The effect is printed as a negative number. The list shows a part of the results.
# Molecular target: human ether-à-go-go-related gene (hERG) potassium channel (human, UniProt Q12809)
# Assay: primary screen, population patch clamp on CHO cells stably expressing hERG
# 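Further: peak tail current of the secondary pulse compared with the same well before compound.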
# Chain of human ether-à-go-go-related gene (hERG) potassium channel (Q12809 whole entry, looked up): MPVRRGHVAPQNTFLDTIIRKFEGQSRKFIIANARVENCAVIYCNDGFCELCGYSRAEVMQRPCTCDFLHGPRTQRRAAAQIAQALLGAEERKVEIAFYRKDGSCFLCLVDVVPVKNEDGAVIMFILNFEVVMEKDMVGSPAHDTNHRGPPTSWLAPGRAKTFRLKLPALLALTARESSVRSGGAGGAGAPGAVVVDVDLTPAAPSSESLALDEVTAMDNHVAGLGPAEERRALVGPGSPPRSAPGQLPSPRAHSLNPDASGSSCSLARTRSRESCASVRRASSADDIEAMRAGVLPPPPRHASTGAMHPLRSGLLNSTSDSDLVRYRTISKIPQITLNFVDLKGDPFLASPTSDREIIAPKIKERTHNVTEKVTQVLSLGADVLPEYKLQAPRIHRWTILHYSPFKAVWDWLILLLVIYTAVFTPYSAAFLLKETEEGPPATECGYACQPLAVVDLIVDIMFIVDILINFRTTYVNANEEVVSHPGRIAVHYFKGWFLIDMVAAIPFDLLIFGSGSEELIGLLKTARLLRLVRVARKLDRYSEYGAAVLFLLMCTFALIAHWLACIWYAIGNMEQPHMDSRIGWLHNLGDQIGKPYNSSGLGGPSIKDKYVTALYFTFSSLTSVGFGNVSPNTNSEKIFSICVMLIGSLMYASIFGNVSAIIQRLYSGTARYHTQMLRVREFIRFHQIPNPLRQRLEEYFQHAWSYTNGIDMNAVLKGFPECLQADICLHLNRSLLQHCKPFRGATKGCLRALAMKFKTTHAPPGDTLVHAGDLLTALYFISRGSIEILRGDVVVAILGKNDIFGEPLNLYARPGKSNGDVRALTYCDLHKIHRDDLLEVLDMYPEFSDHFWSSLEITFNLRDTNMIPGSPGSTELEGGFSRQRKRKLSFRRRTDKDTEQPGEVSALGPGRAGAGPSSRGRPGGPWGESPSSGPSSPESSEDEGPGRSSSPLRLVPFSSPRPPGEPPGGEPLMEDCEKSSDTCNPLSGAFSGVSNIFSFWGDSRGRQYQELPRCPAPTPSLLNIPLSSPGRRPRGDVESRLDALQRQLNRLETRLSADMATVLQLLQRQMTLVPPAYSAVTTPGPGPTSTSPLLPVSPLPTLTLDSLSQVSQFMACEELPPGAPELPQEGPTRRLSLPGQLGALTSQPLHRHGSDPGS
row,SMILES,"hERG current change (%, negative = inhibition) at 10uM [%]"
1,N/C(=N\OC(=O)CCCCCN1C(=O)c2ccccc2C1=O)c1ccccc1,-0.332
2,NCCc1c(Cc2ccccc2)[nH]c2ccccc12,-15.8
3,COC(=O)C1C(O)=C(C=NCC(C)N=CC2=C(O)C(C(=O)OC)C(C)(C)CC2=O)C(=O)CC1(C)C (centres unmarked),14.8
4,COC(=O)c1ccc(C(=O)N2CCCC(N3CCN(c4ccc(F)cc4)CC3)C2)nc1 (centres unmarked),-56.1
5,Cc1ccc(NC(=O)CNCc2ccc(Cl)cc2Cl)cc1S(=O)(=O)N(C)C,-28.1
6,CCOc1ccc(/C=N/OCC(=O)Nc2cc(S(=O)(=O)N3CCOCC3)ccc2OC)cc1,4.31
7,Cc1ccsc1C(=O)N(Cc1nnc(-c2ccccc2Cl)o1)C1CC1,-17.9
8,NC(=O)c1ccc[n+](CC(=O)c2ccc(Cl)c(Cl)c2)c1.[Br-],-5.23
9,CCC(C)NC(=O)c1ccccc1C(=O)NC(C)CC (centres unmarked),1.76
10,NS(=O)(=O)c1ccc(CCNC(=O)CCCCCNc2nc(=S)[nH]c3ccccc23)cc1,24.4
11,CCOc1[nH]n(-c2ccc(Cl)cc2)c(=O)c1C=Nc1ccc(Cl)cc1,14.4
12,O=C(Cn1nc([N+](=O)[O-])nc1Br)NC(c1ccccc1)c1ccccc1,-1.65
13,CC1(C)C(=O)C2(CCCCC2)C(=O)OC1c1cccc([N+](=O)[O-])c1 (centres unmarked),-2.69
14,O=C(Nc1cc(C(F)(F)F)ccc1N1CCCCC1)c1ccco1,21.2
15,Cc1ccc(C2=NN(C(=O)CCCC(=O)O)C(c3ccco3)C2)cc1 (centres unmarked),21.4
16,COc1cccc(CN2CC(C(=O)N(C)CCCC3CCCC3)CCC2=O)c1 (centres unmarked),-21
17,COc1cc(S(=O)(=O)N2CCCCCC2)ccc1Cl,-37.2
18,Cc1nc([N+](=O)[O-])cn1CC(=O)c1ccc(Cl)cc1,11.9
19,Cc1[nH]nc2c1C(c1ccc(N(C)C)cc1)C1=C(CC(C)(C)CC1=O)N2 (centres unmarked),28.2
20,O=C(Oc1cc2oc(=O)cc(-c3ccccc3)c2cc1Cl)C1CCCCC1,4.05
21,CN1CCN(c2ccc(S(=O)(=O)N3CCOCC3)cc2NC(=O)CCc2ccccc2)CC1,-8.75
22,COc1cc(C(C)=O)ccc1OCC(O)CN1CCN(c2ccccn2)CC1 (centres unmarked),-9.62

row,SMILES,"hERG current change (%, negative = inhibition) at 10uM [%]"
1,Cc1cc(C)c2nc(NNC(=O)c3ccc(S(=O)(=O)N4CCCCC4)cc3)sc2c1,4.21
2,CCN1CCN(C(=O)c2ccc(OCC(=O)Nc3ccc(F)cc3)c(OC)c2)CC1,-14.9
3,CC(=O)N(C)N1c2ccccc2CCc2ccccc21,10.9
4,COc1ccccc1NC(=O)C1CCN(S(C)(=O)=O)CC1,18.8
5,NC(=O)CN1CCN(C2CC(=O)N(CCc3ccccc3)C2=O)CC1 (centres unmarked),4.38
6,Cc1cccc(N2CCCC2=Nc2ccc(Br)cc2C#N)c1,14.4
7,Cn1cccc1C(=O)C(=O)Nc1ccc(Cl)cc1,4.11
8,Cl.Fc1cccc(CN(C2=NCCN2)c2c(Cl)cccc2Cl)c1,-10
9,Cc1cc(N(C)C)cc(C)[n+]1[O-],13.8
10,COc1ccc(CNC(=O)[C@H](C)NC(=O)C2CCN(C(=O)[C@@H](N)CCSC)CC2)cc1,5.47
11,CCOC(=O)C1CCCN(C(=O)c2ccc3nc(-c4ccccc4)c(-c4ccccc4)nc3c2)C1 (centres unmarked),1.06
12,O=C(NCCOc1ccccc1)c1cccc(S(=O)(=O)NCc2ccccc2)c1,-16.8
13,CCc1ccc(NC(=O)CO/N=C(\C)c2cc3ccccc3o2)cc1,-11
14,CC(=O)Nc1cccc2c1C(=O)N(c1cccc(C)c1)C2=O,5.57
15,N#CCCN(C(=O)COC(=O)c1ccc(S(=O)(=O)N2CCCC2)cc1)c1cccc(Cl)c1,10.7
16,CCC(C)N(C(=O)Cn1nnc(-c2ccc(Cl)cc2)n1)C1CCS(=O)(=O)C1 (centres unmarked),-12.5
17,Cc1nnc(-n2ncc(C#N)c2N)c2nn(-c3cccc(Cl)c3)c(C)c12,-33.5
18,CCN(CC(=O)Nc1ccc(OC)cc1)CC(=O)Nc1ccc(Cl)cc1F,-6.34
19,CC1=Nc2cc(C(=O)NCCCOC(C)C)ccc2Sc2ccccc21,-19.3
20,CCCN=Cc1sc2ccc(OCC)cc2c1O,-4.28
21,CCCCCn1nc(C)c2c(C)cc(=O)[nH]c21,16.3
22,COc1ccc(N(C(C)=O)c2nc3ccccc3[nH]2)cc1,0.757
